# Sequences with one replicate were seen in a single cluster, so their values are uncertain.
# Tested on: ATP
# Assay: switch fluorescence ratio, 500 uM ATP over buffer (Cy3 cluster intensity, sum of 5 cycles each) (fold (ratio)); higher = stronger signal-on switching upon ATP binding; sequences stand for … in TCGTCGGCAGCGTCAGATGTGTATAAGAGACAGTTTTTTTTTTTTTTTTTTTTTTTTT…TC
# Conditions: aptamer strand: ATP DNA aptamer (quencher-CACCTGGGGGAGTATTGCGGAGGAAGG + anchor), 100 nM annealed; ATP concentration: 500 uM; one replicate
# In short: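 Per cluster, summed Cy3 intensity from the target cycles was divided by that from the buffer cycles to give the fluorescence ratio, then averaged per switch-domain sequence. Clusters outside 100-1000 RFU were excluded. The Cy3-labelled switching-strand clusters, on a modified Illumina MiSeq flow-cell, were annealed to 100 nM quencher-labelled ATP aptamer and imaged in selection buffer, then after 15 min with 500 uM ATP at 22 °C, for five cycles with NaOH stripping and re-annealing between them.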
# 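Note: ATP exposure 15 min at 22 °C before imaging.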
row,Sequence,switch fluorescence ratio
1,CCAGTGGGAC,1.05
2,CCAGTGGGCA,1.03
3,CCAGTTCGCG,1.01
4,CCATAAAAGT,0.947
5,CCATACGGAT,1.04
6,CCATCCGATC,2.24
7,CCATCGGATG,1.01
8,CCATCGGTA,1.02
9,CCATCGTTCT,0.985
10,CCATCTTGGC,0.974
11,CCATGACAGC,1
12,CCATGACATA,1.02
13,CCATGATTG,1.02
14,CCATGCAGAG,1.1
15,CCATGCAGTT,1.05
16,CCATGCCTCC,1.62
17,CCATGCCTTA,0.976
18,CCATGGGTCG,0.976
19,CCATGGTTGG,1.02
20,CCATTACACT,1.13
21,CCATTAGCCA,1.08
22,CCATTCCTAG,1.05
23,CCATTCGGC,0.979
24,CCATTGATAG,1.02
25,CCATTGCCAA,1.03
26,CCATTTACG,1.03

row,Sequence,switch fluorescence ratio
1,CCATTTCTAG,1.02
2,CCATTTTAC,1.31
3,CCATTTTTGT,0.972
4,CCCAAACGCG,0.948
5,CCCAACGTAC,1.95
6,CCCAAGTAGT,1.04
7,CCCAAGTCGA,1.14
8,CCCAATTTTT,1.11
9,CCCACACTCT,1.07
10,CCCACAGATC,1.14
11,CCCACTTCTC,1.05
12,CCCAGAAATC,1.6
13,CCCAGAGGTA,1.03
14,CCCAGATGAG,1.09
15,CCCAGATTCA,1.05
16,CCCAGCAGTT,2.03
17,CCCAGGTTCC,1.7
18,CCCAGGTTTT,2
19,CCCATATCAC,1.19
20,CCCATGACGG,1.05
21,CCCATGAGCT,1.01
22,CCCATTAGCA,1.16
23,CCCATTAGCG,0.984
24,CCCATTGAGG,1.03
25,CCCATTTTGG,0.978
26,CCCATTTTTG,1

row,Sequence,switch fluorescence ratio
1,CCCCAAGTTC,1.16
2,CCCCAATGTG,4.35
3,CCCCCAAAAT,1.61
4,CCCCGACATT,1.85
5,CCCCGCTCCA,4.07
6,CCCCGCTTCA,3.29
7,CCCCGGGGTA,0.987
8,CCCCGTGCTT,1.24
9,CCCCTCCAAA,1.56
10,CCCCTGTTC,1.08
11,CCCCTTCACC,1.08
12,CCCGAAATAA,4.12
13,CCCGAGATTG,0.977
14,CCCGATATAG,1.92
15,CCCGCCCGGT,1.15
16,CCCGCCCGTT,1.01
17,CCCGCGGGGC,1.21
18,CCCGCGTCCA,1.33
19,CCCGCGTTTA,1.08
20,CCCGCTCTTT,1.1
21,CCCGGAAGCG,1.01
22,CCCGGACGAA,1.08
23,CCCGGCCGAT,1.03
24,CCCGGCGGGA,1.19
25,CCCGGGGGGC,3.05
26,CCCGGGTATC,1.19

row,Sequence,switch fluorescence ratio
1,CCCGGTCACG,1.03
2,CCCGTATTGA,1.2
3,CCCTAAAGCC,1.05
4,CCCTAAGGCT,1
5,CCCTAGATTT,0.984
6,CCCTATGGGG,0.972
7,CCCTCCTTCG,1.77
8,CCCTCTTAAG,1.07
9,CCCTGAACTT,1.07
10,CCCTGACGTG,1.05
11,CCCTGCACAT,3.51
12,CCCTGGCCGA,1.02
13,CCCTGGGGCG,1.03
14,CCCTTCGGGA,2.66
15,CCCTTCGGGC,1.01
16,CCCTTGTCTT,0.96
17,CCCTTTCGGC,1.03
18,CCCTTTTTAC,1
19,CCGAAAGGT,1.05
20,CCGAAGATAT,2.21
21,CCGAATAATG,1.08
22,CCGACAGGGG,1.87
23,CCGACGAGTC,2.35
24,CCGACTCCAG,1.16
25,CCGACTGGCG,1.14
26,CCGACTTCTA,1.21

row,Sequence,switch fluorescence ratio
1,CCGAGCTAGT,2.69
2,CCGAGCTCTC,6.25
3,CCGAGCTGGT,2.38
4,CCGAGGAGCC,1.03
5,CCGAGGGGTA,1.34
6,CCGATAGCGG,1.34
7,CCGATATATG,1.1
8,CCGATCAGGA,0.979
9,CCGATCCCCA,1.15
10,CCGATCTACG,1.5
11,CCGATGATTA,1.19
12,CCGATTAGGT,1.03
13,CCGATTTTGG,1
14,CCGCATCTTT,2.85
15,CCGCCACCCG,1.73
16,CCGCCGACGG,1.35
17,CCGCCGGCGG,1.1
18,CCGCCTATGT,1.81
19,CCGCCTTTAT,2.14
20,CCGCGAACTA,4.45
21,CCGCGCACTG,1.66
22,CCGCGGGCCT,1.16
23,CCGCGGGTCT,1.25
24,CCGCGGTTTG,1.13
25,CCGCTAAGCT,3.92
26,CCGCTCCCCT,3.26

row,Sequence,switch fluorescence ratio
1,CCGCTCGGAA,2.64
2,CCGCTCGTTA,2.74
3,CCGCTTTATC,2.47
4,CCGGAAATTA,1.02
5,CCGGAGAATA,4.98
6,CCGGAGGAAA,0.995
7,CCGGCACTCA,1.43
8,CCGGCAGCCG,0.998
9,CCGGCAGCCT,1.54
10,CCGGCCACCT,1.06
11,CCGGCCGCGG,1.11
12,CCGGCCTCTA,1.18
13,CCGGCGGTAT,1.12
14,CCGGGAAATG,1.56
15,CCGGGAACCA,1.03
16,CCGGGAGATA,1.1
17,CCGGGAGATT,1.05
18,CCGGGAGCGT,1.45
19,CCGGGAGTCT,1.1
20,CCGGGATATC,2.75
21,CCGGGATGGC,1.54
22,CCGGGCTAAC,1.65
23,CCGGGCTGAG,1.11
